Results reported in PMC9911399, “Two distinct binding modes provide the RNA-binding protein RbFox with extraordinary sequence specificity”.
Positions count from the first letter of the chain named. Some of the results follow.

T1: RBFOX1 RRM RbFoxmut (Fox-RRM*) (Homo sapiens, UniProt Q9NWB1 109-208, R118D;E147R;N151S;E152T)
T1 sequence: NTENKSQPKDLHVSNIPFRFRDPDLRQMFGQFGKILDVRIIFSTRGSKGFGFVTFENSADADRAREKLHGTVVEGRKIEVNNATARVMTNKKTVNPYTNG

B1: UUGGAUG (DNA:RNA)
RNA: GGGAGACCGGAAUUCAGAUUGUCCUUGGAUGUUAAAUCCCGUCGUAGCCACCA
DNA 1: CAATCTGAATTCCGGTCTCCC
DNA 2: TGGTGGCTACGACGGGATT
B2: CAACGUA (DNA:RNA)
RNA: B1 RNA with U25C, U26A, G27A, G28C, A29G, G31A
DNA 1: CAATCTGAATTCCGGTCTCCC
DNA 2: TGGTGGCTACGACGGGATT
B3: GCAGAUA (DNA:RNA)
RNA: B1 RNA with U25G, U26C, G27A, G31A
DNA 1: CAATCTGAATTCCGGTCTCCC
DNA 2: TGGTGGCTACGACGGGATT
B4: UCCGGUG (DNA:RNA)
RNA: B1 RNA with U26C, G27C, A29G
DNA 1: CAATCTGAATTCCGGTCTCCC
DNA 2: TGGTGGCTACGACGGGATT
B5: UUUAGAC (DNA:RNA)
RNA: B1 RNA with G27U, G28A, A29G, U30A, G31C
DNA 1: CAATCTGAATTCCGGTCTCCC
DNA 2: TGGTGGCTACGACGGGATT
B6: GCUACUG (DNA:RNA)
RNA: B1 RNA with U25G, U26C, G27U, G28A, A29C
DNA 1: CAATCTGAATTCCGGTCTCCC
DNA 2: TGGTGGCTACGACGGGATT
B7: CUGUAUG (DNA:RNA)
RNA: B1 RNA with U25C, G28U
DNA 1: CAATCTGAATTCCGGTCTCCC
DNA 2: TGGTGGCTACGACGGGATT
B8: UGCUAGA (DNA:RNA)
RNA: B1 RNA with U26G, G27C, G28U, U30G, G31A
DNA 1: CAATCTGAATTCCGGTCTCCC
DNA 2: TGGTGGCTACGACGGGATT
B9: UGAGAGG (DNA:RNA)
RNA: B1 RNA with U26G, G27A, U30G
DNA 1: CAATCTGAATTCCGGTCTCCC
DNA 2: TGGTGGCTACGACGGGATT
B10: AAUCGCC (DNA:RNA)
RNA: GGGAGACCGGAAUUCAGAUUGUCCAAUCGCCUUAAAUCCCGUCGUAGCCACCA
DNA 1: CAATCTGAATTCCGGTCTCCC
DNA 2: TGGTGGCTACGACGGGATT
B11: CCGCCAU (DNA:RNA)
RNA: B10 RNA with A25C, A26C, U27G, G29C, C30A, C31U
DNA 1: CAATCTGAATTCCGGTCTCCC
DNA 2: TGGTGGCTACGACGGGATT
B12: AUUGAUU (DNA:RNA)
RNA: B1 RNA with U25A, G27U, G31U
DNA 1: CAATCTGAATTCCGGTCTCCC
DNA 2: TGGTGGCTACGACGGGATT
B13: AGGUGCU (DNA:RNA)
RNA: B10 RNA with A26G, U27G, C28U, C31U
DNA 1: CAATCTGAATTCCGGTCTCCC
DNA 2: TGGTGGCTACGACGGGATT
B14: AGACCAU (DNA:RNA)
RNA: B10 RNA with A26G, U27A, G29C, C30A, C31U
DNA 1: CAATCTGAATTCCGGTCTCCC
DNA 2: TGGTGGCTACGACGGGATT
B15: GCCUAAC (DNA:RNA)
RNA: B10 RNA with A25G, A26C, U27C, C28U, G29A, C30A
DNA 1: CAATCTGAATTCCGGTCTCCC
DNA 2: TGGTGGCTACGACGGGATT
B16: AACACGG (DNA:RNA)
RNA: B10 RNA with U27C, C28A, G29C, C30G, C31G
DNA 1: CAATCTGAATTCCGGTCTCCC
DNA 2: TGGTGGCTACGACGGGATT
B17: GUUGAAU (DNA:RNA)
RNA: B1 RNA with U25G, G27U, U30A, G31U
DNA 1: CAATCTGAATTCCGGTCTCCC
DNA 2: TGGTGGCTACGACGGGATT
B18: AAGUAGG (DNA:RNA)
RNA: B1 RNA with U25A, U26A, G28U, U30G
DNA 1: CAATCTGAATTCCGGTCTCCC
DNA 2: TGGTGGCTACGACGGGATT
B19: UUCAUGC (DNA:RNA)
RNA: B1 RNA with G27C, G28A, A29U, U30G, G31C
DNA 1: CAATCTGAATTCCGGTCTCCC
DNA 2: TGGTGGCTACGACGGGATT
B20: GACCCAC (DNA:RNA)
RNA: B10 RNA with A25G, U27C, G29C, C30A
DNA 1: CAATCTGAATTCCGGTCTCCC
DNA 2: TGGTGGCTACGACGGGATT
B21: UUCCCUU (DNA:RNA)
RNA: B1 RNA with G27C, G28C, A29C, G31U
DNA 1: CAATCTGAATTCCGGTCTCCC
DNA 2: TGGTGGCTACGACGGGATT
B22: AUAAGAA (DNA:RNA)
RNA: B10 RNA with A26U, U27A, C28A, C30A, C31A
DNA 1: CAATCTGAATTCCGGTCTCCC
DNA 2: TGGTGGCTACGACGGGATT
B23: UACCAUC (DNA:RNA)
RNA: B10 RNA with A25U, U27C, G29A, C30U
DNA 1: CAATCTGAATTCCGGTCTCCC
DNA 2: TGGTGGCTACGACGGGATT
B24: AGUUGGC (DNA:RNA)
RNA: B10 RNA with A26G, C28U, C30G
DNA 1: CAATCTGAATTCCGGTCTCCC
DNA 2: TGGTGGCTACGACGGGATT
B25: CGAAAGA (DNA:RNA)
RNA: B1 RNA with U25C, U26G, G27A, G28A, U30G, G31A
DNA 1: CAATCTGAATTCCGGTCTCCC
DNA 2: TGGTGGCTACGACGGGATT
B26: CGGCUCU (DNA:RNA)
RNA: B10 RNA with A25C, A26G, U27G, G29U, C31U
DNA 1: CAATCTGAATTCCGGTCTCCC
DNA 2: TGGTGGCTACGACGGGATT
B27: AUAACAG (DNA:RNA)
RNA: B1 RNA with U25A, G27A, G28A, A29C, U30A
DNA 1: CAATCTGAATTCCGGTCTCCC
DNA 2: TGGTGGCTACGACGGGATT
B28: CUAGUAA (DNA:RNA)
RNA: B1 RNA with U25C, G27A, A29U, U30A, G31A
DNA 1: CAATCTGAATTCCGGTCTCCC
DNA 2: TGGTGGCTACGACGGGATT
B29: AUCUUCC (DNA:RNA)
RNA: B10 RNA with A26U, U27C, C28U, G29U
DNA 1: CAATCTGAATTCCGGTCTCCC
DNA 2: TGGTGGCTACGACGGGATT
B30: UUCGCGA (DNA:RNA)
RNA: B1 RNA with G27C, A29C, U30G, G31A
DNA 1: CAATCTGAATTCCGGTCTCCC
DNA 2: TGGTGGCTACGACGGGATT
B31: CUACCUU (DNA:RNA)
RNA: B1 RNA with U25C, G27A, G28C, A29C, G31U
DNA 1: CAATCTGAATTCCGGTCTCCC
DNA 2: TGGTGGCTACGACGGGATT

These binders were tested against T1, RBFOX1 RRM RbFoxmut (Fox-RRM*) (assay: EMSA; HiTS-Eq, 1 nM pool, 10 min; buffer printed only for the single-RNA assays: 10 mM Tris pH 7.5, 150 mM NaCl, 3.4 mM EDTA, 0.001% NP-40, 30 C). Settings: tags: His6 N-terminal (pET28a); label: 5' 32P.
How it was run: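 These values rest on relative association constants, computed from read-count changes of each RNA species versus the control reaction and normalised to the cognate motif. Reads came from free RNA recovered by 8% native PAGE after purified RbFox RRM (wild type or mutant) at increasing concentrations was equilibrated for 10 min in 50 µL with 1 nM of a 5′-radiolabelled pool with 7 randomized nucleotides and DNA-annealed flanks.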

Binder	binding signal
B1	0.61 KA relative to UGCAUGU
B2	0.123 KA relative to UGCAUGU
B3	0.116 KA relative to UGCAUGU
B4	0.0892 KA relative to UGCAUGU
B5	0.0679 KA relative to UGCAUGU
B6	0.0876 KA relative to UGCAUGU
B7	1.11 KA relative to UGCAUGU
B8	0.134 KA relative to UGCAUGU
B9	0.0738 KA relative to UGCAUGU
B10	0.0888 KA relative to UGCAUGU
B11	0.0952 KA relative to UGCAUGU
B12	0.103 KA relative to UGCAUGU
B13	0.0923 KA relative to UGCAUGU
B14	0.0658 KA relative to UGCAUGU
B15	0.0572 KA relative to UGCAUGU
B16	0.0833 KA relative to UGCAUGU

Binder	binding signal
B17	0.125 KA relative to UGCAUGU
B18	0.113 KA relative to UGCAUGU
B19	0.13 KA relative to UGCAUGU
B20	0.0725 KA relative to UGCAUGU
B21	0.064 KA relative to UGCAUGU
B22	0.103 KA relative to UGCAUGU
B23	0.0736 KA relative to UGCAUGU
B24	0.107 KA relative to UGCAUGU
B25	0.0791 KA relative to UGCAUGU
B26	0.0931 KA relative to UGCAUGU
B27	0.0845 KA relative to UGCAUGU
B28	0.117 KA relative to UGCAUGU
B29	0.0652 KA relative to UGCAUGU
B30	0.0665 KA relative to UGCAUGU
B31	0.0888 KA relative to UGCAUGU
